Experimental findings from PubChem BioAssay AID463173 (ICCB-Longwood Screening Facility, Harvard Medical School, 2010) are described below.

The campaign covered roughly 52,000 compounds. About 1,700 (3.3%) were called active. Cut-off read from the data, not from the text of the source: active = survival mostly below about 52% (no sharp cut-off); inactive = mostly above about 56%. Some of the results follow.

This experiment relates to Wild type. Description: S. aureus survival, RN4220 and DeltatarO strains – OD600, teichoic acid synthesis inhibitors, primary screen (AID 463173). The conditions noted are these: S. aureus RN4220 wild type/DeltatarO growth, OD600, 18 h, active compounds read low, screened at 18.75 µg/mL (by protocol).
Turning to `Cc1ccc(NC(=O)CCc2c(C)nc3c(-c4ccc(F)cc4)c(C)nn3c2C)cc1F`, the survival was inactive: 82%.

Regarding `Cc1cc(C)c(Nc2ncnc3c2cnn3C)c(C)c1`, the survival is inactive: 89%.

`Cc1nn(CC(=O)NC2CCC(C)CC2)c(=O)c2c1sc1ccccc12` (stereo not drawn): the survival was inactive: 82%.

`O=C(/C=C/c1ccccc1Cl)N1CCC(c2nc3ccccc3o2)CC1`: the survival is inactive: 72%.

As for `Cc1ccccc1N1C(=O)c2ccccc2NC1c1ccncc1` (stereo not drawn), the survival is inactive: 101%.

Consider `COC(=O)N1CCCc2cc(S(=O)(=O)NCc3ccccc3)ccc21`, for which the survival was inactive: 86%.

Consider `CCOc1ccc(NC(=O)c2sc3nc4n(c(=O)c3c2C)CCC4)cc1`, for which the survival is inactive: 87%.

As to `COc1ccc(-c2nn3c(=O)cc(CN4CCN(C(=O)/C=C/c5ccccc5)CC4)nc3s2)cc1`, the survival was inactive: 72%.

Regarding `Cc1cccc(C)c1NC(=O)c1ccc2c(c1)nnn2C1CCCC1`, the survival was active: -6%.

Consider `CCOc1cc(-c2ccc(OC(=O)c3ccccc3Cl)c(OC)c2)cc(=O)c2c(C)oc(C)c12`, for which the survival is inactive: 83%.

Turning to `CCOC(=O)c1cc2occc2n1Cc1c(F)cccc1Cl`, the survival is inactive: 100%.

In the case of `CC(C)(C)NC(=O)Cc1ccccc1`, the survival was inactive: 103%.

For the compound `COc1ccc(C2CC(=O)Nc3c2c(=O)[nH]c2nc4ccccc4n32)cc1` (stereo not drawn), the survival is inactive: 75%.

With `Cc1ccccc1COC(=O)c1nn(-c2ccccc2)nc1N`, the survival was active: -9%.

Regarding `COc1ccccc1N1CCN(C(=O)Cn2c(=O)n3nc(-c4cccc(F)c4)nc3c3ccccc32)CC1`, the survival was inactive: 70%.

As to `O=C(COc1ccccc1O)NCCN1CCOCC1`, the survival is inactive: 98%.

Take `CCCCN(CC)CCNC(=O)C1CCN(S(=O)(=O)c2cccc3nsnc23)CC1`: the survival is inactive: 87%.

Take `CCNC(=O)c1ccc(NC(=O)N2CCCCc3ccccc32)cc1`: the survival was inactive: 74%.

With `Cc1cc(C)cc(NC(=O)CSc2nc3c(c(=O)[nH]2)CN(Cc2ccc(F)cc2)CC3)c1`, the survival was inactive: 83%.

`CCn1cc(C(=O)Nc2cccc(Cl)c2)c2cc(OC)c(OC)cc2c1=O`: the survival was inactive: 76%.

As to `CC(=O)c1ccc(N2CCN(S(=O)(=O)c3ccc(-c4coc(C)n4)cc3)CC2)cc1`, the survival was inactive: 71%.

For the compound `CC(CCc1ccccc1)NC(=O)Cn1ncc2c3ccccc3n(Cc3ccccc3F)c2c1=O` (stereo not drawn), the survival was inactive: 85%.

As to `CCc1nn(CC(=O)N2CCN(c3ccc(OC)cc3)CC2)c(=O)c2cc3sccc3n12`, the survival was inactive: 88%.

On to `Cn1c(=O)oc2cc(S(=O)(=O)CCC(=O)N3CCN(c4ccccc4F)CC3)ccc21`, for which the survival is inactive: 90%.

As to `O=C(CCn1c(=O)c2cccn2c2cccnc21)N1CCN(c2ccccc2)CC1`, the survival is inactive: 111%.

Turning to `CCC(=O)C1=C(c2ccc(F)cc2)N(C(=O)CC)n2c(nnc2-c2ccc(OC)cc2)S1`, the survival is inactive: 53%.

With `O=C(CSc1nccn1-c1cccc(Cl)c1)Nc1ccc2c(c1)OCO2`, the survival is inactive: 71%.

As for `CCN(C(=O)C1CCN(S(=O)(=O)c2cc(Br)cc3c2N(C(C)=O)CC3)CC1)c1cccc(C)c1`, the survival is inactive: 93%.

Take `COc1ccc(-c2cnc(C)o2)cc1S(=O)(=O)Nc1ccc(NC(C)=O)cc1`: the survival was inactive: 81%.

As for `CCC(=O)NNc1ncnc2c1cnn2-c1ccc(C)c(Cl)c1`, the survival was inactive: 68%.

As to `CCn1c(SCC(=O)Nc2ccccc2C(=O)OC)nc2ccsc2c1=O`, the survival is inactive: 83%.

On to `Cc1ccc(-c2cc(C(=O)Oc3ccc(C#N)cc3)no2)cc1`, for which the survival is inactive: 88%.

For the compound `O=C(O)CCC(=O)NCc1ccccn1`, the survival was inactive: 84%.

Consider `CCc1ccc(CSc2nc(-c3ccccc3F)nc3c2Cc2c(CO)cnc(C)c2O3)cc1`, for which the survival is inactive: 86%.

Turning to `O=C(CSc1nc(=O)[nH]c2c1CCC2)NCc1ccccc1Cl`, the survival was inactive: 78%.

As to `CCN(Cc1ccccc1)C(=O)Cn1c(=O)n(-c2ccccc2)c(=O)c2c1c1cc(C)ccc1n2C`, the survival is inactive: 71%.

With `Cc1nc2ccccc2c(=O)n1-c1ccc(NC(=O)c2ccccc2[N+](=O)[O-])cc1`, the survival was inactive: 73%.

On to `Cc1ccc(NC(=O)Cn2c(=O)n(Cc3ccco3)c(=O)c3oc4ccccc4c32)cc1C`, for which the survival was inactive: 88%.

As to `COc1ccc(OC(=O)c2nc(SCc3ccccc3F)ncc2Cl)cc1`, the survival is inactive: 86%.

Regarding `CCC(C)NC(=O)c1nn(-c2ccc(C)cc2)nc1CO` (stereo not drawn), the survival is inactive: 88%.

For `O=C(NC1CCCCCC1)C1COc2ccccc2O1` (stereo not drawn), the survival was inactive: 128%.

As for `CCCC(c1nnnn1CCC(C)C)N1CCC(C(N)=O)CC1` (stereo not drawn), the survival is inactive: 105%.

Regarding `Cc1cccc(CN2C(=O)c3ccccc3Sc3ccc(C(=O)NC4CCCCC4)cc32)c1`, the survival was inactive: 128%.

In the case of `CC(C)(C)c1ccc(C(=O)NCC(c2cccnc2)N2CCc3ccccc3C2)cc1` (stereo not drawn), the survival is inactive: 97%.

For `Cc1cccc(CNC(=O)C2CCC(CNS(=O)(=O)c3ccc4c(c3)CCCC(=O)N4)CC2)c1` (stereo not drawn), the survival is inactive: 65%.

Take `O=C(Nc1ccc2nc(SCC(=O)N3CCOCC3)sc2c1)c1cccc(Br)c1`: the survival was inactive: 39%.

As to `CC1CCC(C(=O)NC(C(=O)OCC(=O)c2ccc(Br)cc2)C(C)C)CC1` (stereo not drawn), the survival was inactive: 90%.

For `Cc1ccc(CNS(=O)(=O)c2cc3c(cc2Cl)NC(=O)CO3)o1`, the survival was inactive: 124%.

Turning to `CCCn1c(N)nc2c1c(=O)[nH]c(=O)n2C`, the survival was inactive: 110%.

`Cc1ccc(S(=O)(=O)c2cn(CC(=O)Nc3cccc(C)c3)c3cc4c(cc3c2=O)OCO4)cc1`: the survival is inactive: 86%.

Consider `CNS(=O)(=O)c1cn(CC(=O)Nc2ccc(OC)cc2OC)cc1S(=O)(=O)NC`, for which the survival is inactive: 73%.

In the case of `Cc1ccc(/C=C/c2onc(C)c2S(=O)(=O)N2CCC(C(=O)Nc3ccc(Br)c(C)c3)CC2)cc1`, the survival was inactive: 91%.

For `CCC(CC)C(=O)Nc1cc(-c2ccccc2F)nn1-c1ccccc1`, the survival is inactive: 71%.

On to `Cc1csc2nc(-c3ccc(NS(=O)(=O)c4cc(F)ccc4F)cc3)cn12`, for which the survival was inactive: 76%.

Consider `Cc1ccccc1/C=C(\C#N)c1nc(-c2ccc(Cl)cc2)cs1`, for which the survival is inactive: 30%.

In the case of `COc1cc2c(C)nc(C)c(C#N)c2cc1OC`, the survival is inactive: 125%.

Consider `COc1ccccc1C(=O)Nc1ccc(C(=O)OCc2cc(=O)n3nc(C)sc3n2)cc1`, for which the survival is inactive: 120%.

As for `CCN(CC)C(=O)Cn1c(=O)n(-c2ccccc2)c(=O)c2c3c(sc21)CCC3`, the survival was inactive: 88%.

As to `COc1ccc(CCN2C(=O)CN(C3CCCCCC3)C(=O)C2c2ccc(OC(C)C)c(OC)c2)cc1OC` (stereo not drawn), the survival is inactive: 71%.

Consider `Cc1ccc(CNC(=O)c2nnc(Cc3ccc(Cl)cc3)o2)cc1`, for which the survival is inactive: 79%.

As to `CN(C(=O)c1ccc2c(Cl)c3c(nc2c1)CCC3)c1ccccc1F`, the survival is inactive: 110%.

As for `Cc1ccc(NC(=O)Cn2c(-c3cncs3)nc3ccccc32)c(Br)c1`, the survival was inactive: 76%.

As for `Cc1ccc(CNC(=O)CN2C(=O)C3(SCC(=O)N3c3ccc(F)cc3)c3ccccc32)cc1` (stereo not drawn), the survival is inactive: 73%.

As to `Cc1c(Cl)cccc1Nc1nc2ccc(C(=O)c3ccccc3)cc2n2cnnc12`, the survival is inactive: 98%.

Regarding `Cc1ccc2c(c1)C1OCCC1C(c1cccs1)N2` (stereo not drawn), the survival is inactive: 111%.

Regarding `CC1CN(C(=O)N2CCC(C(=O)NCCCc3ccccc3)CC2)c2ccccc2O1` (stereo not drawn), the survival is inactive: 87%.

As to `CC(=O)N1CCc2c(sc3c2c(=O)n(Cc2ccccc2)c(=O)n3Cc2cc(C)ccc2C)C1`, the survival was inactive: 93%.

For `CCOc1ccc(Nc2oc(/C=C/c3cccc(OC)c3)nc2C#N)cc1`, the survival was inactive: 89%.

In the case of `CCCCCn1c(CCNC(=O)c2cccc(C)c2)nc2ccccc21`, the survival is active: 2%.

For the compound `O=C(CSc1nc2sc3c(c2c(=O)[nH]1)CCCC3)Nc1nc2c(s1)CCCC2`, the survival was inactive: 97%.

For the compound `Cc1cc(C)c2c(n1)sc1c(=O)n(-c3ccccc3C(F)(F)F)nnc12`, the survival was inactive: 130%.

Consider `CC1(C)Cc2ccccc2C(NN=C2CCCCC2)=N1`, for which the survival is inactive: 106%.

For `CCSc1nc2c([nH]c3ccccc32)c(=O)n1-c1ccc(F)cc1`, the survival was inactive: 79%.

As to `CCc1ccc(CNC(=O)C2CCCN(S(=O)(=O)c3ccc4c(ccn4C)c3)C2)cc1` (stereo not drawn), the survival was inactive: 95%.

As to `COc1ccc(CNC(=O)CCc2nc(-c3ccc(OC)cc3)no2)cc1`, the survival is inactive: 79%.

For `Nc1nc2c(s1)CCCC2`, the survival is inactive: 99%.

In the case of `CCCCOc1ccc(CNC(=O)c2ccc3c(c2)N(C)C(=O)C2CCCCN32)cc1` (stereo not drawn), the survival was inactive: 88%.

`CCC(=O)N1CCc2cc(CNS(=O)(=O)c3cccs3)ccc21`: the survival is inactive: 89%.

Regarding `CCOC(=O)C(CC)Sc1c(CC)cnc2c1c(=O)n(C)c(=O)n2C` (stereo not drawn), the survival is inactive: 72%.

For `Cc1ccc(OCCSc2nc3ccc(NC(=O)c4ccc(F)cc4)cc3s2)cc1`, the survival is inactive: 114%.

Turning to `Cc1cccc(C(C)C)c1NC(=O)C(NS(=O)(=O)c1cccc2nsnc12)c1ccccc1` (stereo not drawn), the survival was inactive: 81%.

On to `Fc1ccc(COC(CN2CCCCC2)CN2CCCCC2)cc1`, for which the survival was inactive: 99%.

As to `COc1ccc(-c2c(C)c3ccc(O)c(CN4CCCC4)c3oc2=O)cc1OC`, the survival was inactive: 112%.

With `Cc1ccc(Cc2cn3cc(-c4ccc(F)cc4)nc3s2)cc1`, the survival was inactive: 140%.

On to `COC(=O)CSc1nc2ccccc2n1CC(=O)N1C(C)CCCC1C` (stereo not drawn), for which the survival was inactive: 104%.

As for `COc1cccc(-c2cn3ncsc3n2)c1`, the survival is inactive: 80%.

On to `O/N=C1\CCCc2nnc3c(c21)CCCC3`, for which the survival was inactive: 111%.

In the case of `Cc1ccccc1CSc1ccc(-c2cccs2)nn1`, the survival is inactive: 124%.

Consider `Cc1ccc(NC(=O)Cn2cc(C(=O)C3CC3)c3ccccc32)cc1C`, for which the survival is inactive: 92%.

For the compound `Cc1ccc(S(=O)(=O)NC(C)(C)CN2CCCCC2)cc1`, the survival was inactive: 81%.

For the compound `Cc1cc(C)n(-c2nc(C)c(C)c(=O)n2CC(=O)Nc2ccc(OC(F)(F)F)cc2)n1`, the survival was inactive: 97%.

For `Cc1cccc(NC(=O)c2cc(S(=O)(=O)N3CCCCCC3)cn2C)c1C`, the survival was inactive: 60%.

Turning to `Cc1ccc(CNC(=O)c2ccc(Cn3c(=O)c4ccccc4n(CC(=O)Nc4c(C)cc(C)cc4C)c3=O)cc2)cc1`, the survival was inactive: 68%.
